The text below walks through data of PubChem BioAssay AID334 (DTP/NCI, 2004).

The structures appear in SMILES notation. Toxic doses and inconclusive results are not listed. The source holds more than one record for some entries. They are shown here; other results are not. The source may hold further records. Values given together are repeats in other runs, samples, wells, individuals or studies.

The subject of the experiment is CD2F1 mice, intracerebral P388 leukemia, median survival T/C%. The experiment is described as follows: NCI In Vivo Anticancer Drug Screen. Data for tumor model P388 Leukemia (intracerebral) in CD2F1 (CDF1) mice. The note with it: endpoint: median survival time, schedule: Q01DX005 (ip), higher = longer survival. As for the experimental part:
The antitumor activity of compounds was measured in mice bearing transplantable tumors. Survival or tumor size were measured and the results are expressed as the measurement made in the treated group (T) divided by the measurement made in the vehicle treated control group (C). The tumor model used in this assay is P388 Leukemia (intracerebral) in CD2F1 (CDF1) mice

On to `COS(C)(=O)=O`, for which the T/C (dose: 16.0 mg/kg/injection, vehicle: saline) is 105 % of control and 156 % of control.

In the case of `COc1cc(C[C@H]2c3cc(OC)c(OC)cc3CCN2C)c(Oc2cc3c(cc2OC)-c2c(OC)c(OC)cc4c2[C@H](C3)N(C)CC4)cc1OC`, the T/C (dose: 100.0 mg/kg/injection, vehicle: Klucel (hydroxypropylcellulose) (HPC)) is given as 104 % of control, 107 % of control, 158 % of control.
